The RNAGym collection of RNA variant scans (doi:10.7554/elife.90254)
Read counts are not given, so values of variants with three or more changes are uncertain.

B1: OR4K15 (parent)
chain: GUUAACGGUCAUAGGCCAUGGAAACUAGGAGCACCAUUUCGCUGCCAGUGAAGAAAUGAACAAAGAAAAUCUGGGCCAGGCAGGCAUCAAAAGAAAUAGUCUUGCGCUCAACCAGAAAGUCUGUAAUCAUUUUAAGGGUA

Variants of: B1
Experiment: self-cleavage, relative activity (ratio to wild type); higher = more cleavage; in vitro, sequencing; the parent is a self-cleaving ribozyme

| Variant | self-cleavage |
| --- | --- |
| GUUAACGGCCAUAGGCCAUGGAAACUAGGAGCACCAUUUCGCUGCCAGUGAAGAAAUGAACAAAGGAAAUCUGGGCCAGGCAGGCAUCAAAAGAAAUAGUCUUGCGCUCAACCAGAAAGUCUGUAAUCAUUUUAUGGGUA [U9C A66G A135U] | 1.38 |
| GUUAACGGCCAUAGGCCAUGGAAACUAGGAGCACCAUUUCGCUGCCAGUGAAGAAAUGAACGGAGAAGAUCUGGGCCAGGCAGGCAUCAAAAGAAAUAGUCUUGCGCUCAACCAGAAAGUCUGUAAUCAUUUUAAGGGUA [U9C A62G A63G A68G] | 0.95 |
| GUUAACGGCCAUAGGCCAUGGAAACUAGGAGCACCAUUUCGCUGCCAGUGAAGAAAUGAACAAAGAAAAUCUGGGCCAGGCGGGCAUCAAGAGAAAUAGUCUUGCGCUCAACCAGAAAGUCUGUAAUCAUUUUAAGGGUA [U9C A82G A91G] | 0.15 |
| GUUAACGGCCAUAGGCCAUGGAAACUAGGAGCACCAUUUCGCUGCCAGUGAAGAAAUGAACAAAGAAAGUCUGGGCCAGGCAGGCAUCAAAAGAAAUAGUCUUGCGCUCAACCAGAAAGUCUGUAAUCACUUUAAGGGUA [U9C A69G U130C] | 1.52 |
| GUUAACGGCCAUAGGCCAUGGAAACUAGGAGCACCAUUUCGCUGCCAGUGAAGAAAUGAACGAAGGAAAUCUGGGCCAGGCAGGCAUCAAAAGAAAUAGUCUUGCGCUCAACCAGAAAGUCUGUAAUCAUGUUAAGGGUA [U9C A62G A66G U131G] | 1.91 |
| GUUAACGGCCAUAGGCCAUGGAAACUAGGAGCACCAUUUCGCUGCCAGUGAAGAAAUGAACAAAGAAAAUCUGGGCCAGGCAGGCUUCAAAAGAAAUAGUCUCGCGCUCAACCAGAAAGUCUGUAAUCAUUUUAAGGGUA [U9C A86U U103C] | 1.67 |
| GUUAACGGCCAUAGGCCAUGGAAACUAGGAGCACCAUUUCGCUGCCAGUGAAGAAAUGAACAAAGAAAAUCUGGGCCAGGCAGGCAUCGAAAGAAAUAGUCUUGCGCUCAACCAGAAAGUCUGUAAUCACUUUAAGGGUA [U9C A89G U130C] | 1.64 |
| GUUAACGGCCAUAGGCCAUGGAAACUAGGAGCACCAUUUCGCUGCCAGUGAAGAAAUGAACAGAGAAAAUCUGGGCCAGGCAGGCAUCAAAAGAAAUAGUCUUGCGCUCAGCCAGAAAGUCUGUAAACAUUUUAAGGGUA [U9C A63G A111G U127A] | 0.04 |
| GUUAACGGCCAUAGGCCAUGGAAACUAGGAGCACCAUUUCGCUGCCAGUGAAGAAAUGAACAAAGAAAAUCUGGGCCAGGCGGGCAUCAAAAGAAAUAGCCUUGCGCCCAACCAGAAAGUCUGUAAUCAUCUUAAGGGUA [U9C A82G U100C U108C U131C] | 0.01 |
| GUUAACGGCCAUAGGCCAUGGAAACUAGGAGCACCAUUUCGCUGCCAGUGAAGAAAUGAACAAAGAAAAUCUGGGCCAGGCAGGCAUCACAAGAAAUAGUCUUGCGCCCAACCAGAAAGUCUGUAAUCAUUUUAAGGGUA [U9C A90C U108C] | 0.02 |
| GUUAACGGCCAUAGGCCAUGGAAACUAGGAGCACCAUUUCGCUGCCAGUGAAGAAGUGAACAAAGAAAAUCUGGGCCAGGCAGGCAUCAAACGAAAUAGUCUUGCGCUCAACCAGAAAGUCUGUAAUCAUUUUAAGGGUA [U9C A56G A92C] | 1.53 |
| GUUAACGGCCAUAGGCCAUGGAAACUAGGAGCACCAUUUCGCUGCCAGUGAAGAAAUGAACAAAGAAAAUCUGGGCCGGGCAGGCGUCAAAAGAAAUAGUCUUGCGCUCAACCAGAGAGUCUGUAAUCAUUUUAAGGGUA [U9C A78G A86G A117G] | 0.33 |
| GUUAACGGCCAUAGGCCAUGGAAACUAGGAGCACCAUUUCGCUGCCAGUGAAGAAAUGAACGAAGACAAUCUGGGCCAGGCAGGCAACAAAAGAAAUAGUCUUGCGCUCAACCAGAAAGUCUGUAAUCAUUUUAAGGGUA [U9C A62G A67C U87A] | 1.4 |
| GUUAACGGCCAUAGGCCAUGGAAACUAGGAGCACCAUUUCGCUGCCAGUGAAGAAAUGAACGAAGAAAAUCUGGGCCAGGCAGGCAUCAAAAGAAAUGGUCUUGCGCUCAACCAGAAAGUCUGUAAUCAUUUUAAGGGUA [U9C A62G A98G] | 0.58 |
| GUUAACGGCCAUAGGCCAUGGAAACUAGGAGCACCAUUUCGCUGCCAGUGAAGAGAUGAACAAAGAAAAUCUGGGCCAGGCAGGCAUCAAAAGAAAUAGUCUUGCGCUCAACCAGAAAGCCUGUAAUCAUUUUAAGGGUA [U9C A55G U120C] | 0.57 |
| GUUAACGGCCAUAGGCCAUGGAAACUAGGAGCACCAUUUCGCUGCCAGUGAAGAAAUGAGCAAAGAAAAUCUGGGCCAGGCAGGCAUCAAAAGAAAUAGUCUUGCGCUCAACCUGAAAGUCUGUAAUCAUUUUAAGGGUA [U9C A60G A114U] | 0 |
| GUUAACGGCCAUAGGCCAUGGAAACUAGGAGCACCAUUUCGCUGCCAGUGAAGAAAUGAACAAAGAAAUUCUGGGCCAGGCAGGCAUCAAAAGAAAUAGUCUUGCGCUCAACCAGAGAGUCCGUAAUCAUUUUAAGGGUA [U9C A69U A117G U122C] | 1.48 |
| GUUAACGGCCAUAGGCCAUGGAAACUAGGAGCACCAUUUCGCUGCCAGUGAAGAAAUGGACAAAGAAAAUCUGGGCCAGGCAGGCAUCAAAAGAAAUAGUCUUGCGCACAACCAGAAAGUCUGUAAUCAUUUUAAGGGUA [U9C A59G U108A] | 0.09 |
| GUUAACGGCCAUAGGCCAUGGAAACUAGGAGCACCAUUUCGCUGCCAGUGAAGAAAUGAACAAAGAAAAUCUGGGCCGGGCAGGCGUCAAAAGAAAUAGUCUUGCGCUCAACCAGAAAGUCUGUAAUCGUCUUAAGGGUA [U9C A78G A86G A129G U131C] | 0.06 |
| GUUAACGGCCAUAGGCCAUGGAAACUAGGAGCACCAUUUCGCUGCCAGUGAAGAAAUGAGCAAAGAAAAUCUGGGCAAGGCAGGCAUCAAAAGAAGUAGUCUUGCGCUCAACCAGAAAGUCCGUAAUCAUUUUAAGGGUA [U9C A60G C77A A96G U122C] | 0.76 |
| GUUAACGGCCAUAGGCCAUGGAAACUAGGAGCACCAUUUCGCUGCCAGUGAAGAAAUGAACGAAGAAAAUCUGGGCCAGGCAGGCAUCAAAAGAAAUAGUCUUGCGCUCAACCUGAAAGUCUGUAAUCAUUUUAAGGGUA [U9C A62G A114U] | 0.01 |
